In publication PMC5700166 one finds binding signal data, which are given here for 39 sequences.

The entries are a selection whose mix differs from that of the whole data set. The list includes weakly bound sequences.

This experiment deals with T1, GST-Dm-Relish (UniProt Q94527).
T1 sequence: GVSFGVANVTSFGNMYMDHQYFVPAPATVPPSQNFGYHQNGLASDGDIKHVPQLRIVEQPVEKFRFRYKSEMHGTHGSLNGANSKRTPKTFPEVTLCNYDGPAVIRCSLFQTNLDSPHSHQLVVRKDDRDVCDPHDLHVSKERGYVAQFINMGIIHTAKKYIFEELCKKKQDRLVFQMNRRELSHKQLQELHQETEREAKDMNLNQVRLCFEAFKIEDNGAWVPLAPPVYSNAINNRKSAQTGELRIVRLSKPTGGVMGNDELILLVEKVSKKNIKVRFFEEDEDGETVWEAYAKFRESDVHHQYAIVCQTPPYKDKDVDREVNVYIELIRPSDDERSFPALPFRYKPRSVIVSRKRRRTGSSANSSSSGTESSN
In words: protein-binding microarray (PBM). Conditions: PBM: ~300 nM protein, 6 mM HEPES pH 7.8, 80 mM KCl, 0.5 mM EDTA, 0.5 mM EGTA, 6% glycerol, 35 ng/ul poly-dIdC, 1% milk, 1 h, room temperature; Ap Aiptasia and Nv Nematostella (sea anemones) / Co Capsaspora / Aq Amphimedon (sponge) / Dm Drosophila / Hu human; RHD is the Rel homology domain; high values mean tight binding; most listed sequences are background and not binding sites; double strand, one strand shown.
On to “CCGATTAACATCAAGTGGGAAAATGATGTTAATCGGGTCTTGATTCGCTTGACGCTGCTG”, for which the binding signal was 0.942 z-score. To “CCGATTAACATCACAACTTTCCCTGATGTTAATCGGGTCTTGATTCGCTTGACGCTGCTG” belongs 2.04 z-score; to “CCGATTAACATCAGGGACCTCCCTGATGTTAATCGGGTCTTGATTCGCTTGACGCTGCTG”, 6.16 z-score. In the case of “CCGATTAACATCAAAAAACCCCTTGATGTTAATCGGGTCTTGATTCGCTTGACGCTGCTG” it was 8.96 z-score; in that of “CCGATTAACATCATATTTTCCCATGATGTTAATCGGGTCTTGATTCGCTTGACGCTGCTG”, 0.894 z-score; in that of “CCGATTAACATCAGAAATCTCCCTGATGTTAATCGGGTCTTGATTCGCTTGACGCTGCTG”, 1.79 z-score. In the case of “CCGATTAACATCAGGGGTCAGTATGATGTTAATCGGGTCTTGATTCGCTTGACGCTGCTG” it was 0.646 z-score; in that of “CCGATTAACATCAGGGGATGCACTGATGTTAATCGGGTCTTGATTCGCTTGACGCTGCTG”, 9.57 z-score.

As to “CCGATTAACATCAGATATCCCCCTGATGTTAATCGGGTCTTGATTCGCTTGACGCTGCTG”, the binding signal came to 5.78 z-score. In the case of “CCGATTAACATCAGGAGAATCCCTGATGTTAATCGGGTCTTGATTCGCTTGACGCTGCTG” it was 4.39 z-score. “CCGATTAACATCAGGCAGTTCCCTGATGTTAATCGGGTCTTGATTCGCTTGACGCTGCTG” came in with a binding signal of 0.202 z-score.

Turning to “CCGATTAACATCAGGACACCCCATGATGTTAATCGGGTCTTGATTCGCTTGACGCTGCTG”, the binding signal worked out at 1.93 z-score. To “CCGATTAACATCATGGGAAGGTTTGATGTTAATCGGGTCTTGATTCGCTTGACGCTGCTG” belongs 0.64 z-score; to “CCGATTAACATCAGGCGAACCCCTGATGTTAATCGGGTCTTGATTCGCTTGACGCTGCTG”, 1.37 z-score; to “CCGATTAACATCAATGGGTTTTCTGATGTTAATCGGGTCTTGATTCGCTTGACGCTGCTG”, 2.88 z-score.

On to “CCGATTAACATCACGGAAATACCTGATGTTAATCGGGTCTTGATTCGCTTGACGCTGCTG”, for which the binding signal came to 2.56 z-score. “CCGATTAACATCAGGGGATAATATGATGTTAATCGGGTCTTGATTCGCTTGACGCTGCTG” showed a binding signal of 2.58 z-score.

Take “CCGATTAACATCAATAACCCCCATGATGTTAATCGGGTCTTGATTCGCTTGACGCTGCTG”: the binding signal is 5.69 z-score. To “CCGATTAACATCACCCCAAACGCTGATGTTAATCGGGTCTTGATTCGCTTGACGCTGCTG” belongs 0.468 z-score; to “CCGATTAACATCAGGAACCCCCATGATGTTAATCGGGTCTTGATTCGCTTGACGCTGCTG”, 9.25 z-score; to “CCGATTAACATCACAACCCCCCCTGATGTTAATCGGGTCTTGATTCGCTTGACGCTGCTG”, 6.16 z-score.

As for “CCGATTAACATCAGGAGGTTCCCTGATGTTAATCGGGTCTTGATTCGCTTGACGCTGCTG”, the binding signal was 2.47 z-score. Consider “CCGATTAACATCAGGGGTAGAACTGATGTTAATCGGGTCTTGATTCGCTTGACGCTGCTG”, for which the binding signal was determined as 0.965 z-score. Consider “CCGATTAACATCAAGGGCTTTCCTGATGTTAATCGGGTCTTGATTCGCTTGACGCTGCTG”, for which the binding signal came out at 2.98 z-score. In the case of “CCGATTAACATCAGGGGTGCCCATGATGTTAATCGGGTCTTGATTCGCTTGACGCTGCTG” it was 3.52 z-score; in that of “CCGATTAACATCAGGGAAGTCCATGATGTTAATCGGGTCTTGATTCGCTTGACGCTGCTG”, 7.44 z-score. The sequence “CCGATTAACATCAGGGGGAGAGATGATGTTAATCGGGTCTTGATTCGCTTGACGCTGCTG” displayed a binding signal of 1.45 z-score. In the case of “CCGATTAACATCAGGGGATCCCATGATGTTAATCGGGTCTTGATTCGCTTGACGCTGCTG” it was 10 z-score; in that of “CCGATTAACATCAGGGGGTTTCATGATGTTAATCGGGTCTTGATTCGCTTGACGCTGCTG”, 8.76 z-score; in that of “CCGATTAACATCACTTTTTTCCCTGATGTTAATCGGGTCTTGATTCGCTTGACGCTGCTG”, 2.28 z-score.

“CCGATTAACATCAGTCCCGCACTTGATGTTAATCGGGTCTTGATTCGCTTGACGCTGCTG”: the binding signal worked out at 0.495 z-score.

For the sequence “CCGATTAACATCAGGGCCCCCCCTGATGTTAATCGGGTCTTGATTCGCTTGACGCTGCTG”, the binding signal was 6.49 z-score.

As for “CCGATTAACATCAGGAACGCCCCTGATGTTAATCGGGTCTTGATTCGCTTGACGCTGCTG”, the binding signal turned out to be 2.09 z-score.

In turn, “CCGATTAACATCAAGGGGGAGATTGATGTTAATCGGGTCTTGATTCGCTTGACGCTGCTG” displayed a binding signal of 3.01 z-score.

Take “CCGATTAACATCAAAAGCCCCCATGATGTTAATCGGGTCTTGATTCGCTTGACGCTGCTG”: the binding signal stood at 6.91 z-score.

“CCGATTAACATCAGAAATTTACCTGATGTTAATCGGGTCTTGATTCGCTTGACGCTGCTG” displayed a binding signal of 2.77 z-score. In the case of “CCGATTAACATCAAGGGAACCCCTGATGTTAATCGGGTCTTGATTCGCTTGACGCTGCTG” it was 9.38 z-score; in that of “CCGATTAACATCAGATATTTCCCTGATGTTAATCGGGTCTTGATTCGCTTGACGCTGCTG”, 2.31 z-score. With “CCGATTAACATCAGGGGAGTGGATGATGTTAATCGGGTCTTGATTCGCTTGACGCTGCTG”, the binding signal turned out to be 0.758 z-score.
